Common to all, as to test: DTP human tumour cell line panel, 48 h
Test [1] has as its system HL-60(TB) leukemia.
For test [2], the system named is 786-0 renal.
Test [3] concerns BT-549 breast.
Test [4] relates to DU-145 prostate.
Test [5] has as its system EKVX NSCLC.
Test [6] has as its system HOP-62 NSCLC.
For test [7], the system named is IGROV1 ovarian.
Test [8] concerns K-562 leukemia.
Test [9] deals with MOLT-4 leukemia.
Test [10] relates to NCI-H460 lung.
Test [11] concerns NCI-H522 lung.
The test system of test [12] is SF-268 CNS.
Test [13] concerns SK-MEL-2 melanoma.
Test [14] deals with SK-OV-3 ovarian.
Test [15] relates to SR leukemia.
Test [16] relates to U251 CNS.
Test [17] has as its system UO-31 renal.

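Results reflect a 48-hour exposure of cells in 96-well plates to compound at five concentrations. GI50 marks 50% less growth.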 Not every entry of the source has a single result; some have several. This list holds those alone. There may be further records. The tests behind the records often covered other concentration ranges, not given here; some values may only mark the edge of a range.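 TGI is the concentration that stops growth completely.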

This passage reports TGI and GI50 results from PubChem BioAssay (NCI).

A word on the TGI: it is the concentration giving total growth inhibition. Low values mean greater sensitivity of the cells, high ones lower sensitivity of the cells. Consider `CC(C)C1OC(=O)/C=C/C=C/C=C/C=C/C=C/CC(O)C(C)C(O)CC(O)CC(O)CC(O)CC(O)CC(O)CC(O)/C=C/C1C` (configuration not stated), for which the TGI in [1] was > 100 µM and 4.36 µM.

Broadly, the GI50 is the concentration giving 50% growth inhibition. As to `Cc1cc(C)cc(Nc2ccc([N+](=O)[O-])c(NCCN3CCOCC3)n2)c1`, the GI50 in test [2] is 3.53 nM and 52.4 nM; in test [3], 5.56 nM and 58.7 nM; in [4], 2.84 nM and 41.7 nM; in [5] it was 4.04 nM and 44.8 nM; in test [6], 1.79 nM and 30.4 nM; in test [7], 3.53 nM and 48.9 nM. Besides, the GI50 in [8] was 0.995 nM and 11.5 nM; in [9] it was 5.18 nM and 55.7 nM; in test [10], 1.66 nM and 17.5 nM; in test [12], 7.32 nM and 133 nM; in test [13], 1.39 nM and 34.3 nM; in [14], 4.46 nM and 59 nM. Further, the GI50 is 0.962 nM and 17.4 nM in [15]; 2.67 nM and 31.1 nM in test [16]; 76 nM and 1.38 µM in [17]. Moreover, the TGI in test [11] is 0.855 nM and 151 nM.
